Test [1] deals with triple HA-epitope tagged WT rat Sstr2 (Somatostatin receptor 2) (rat) (UniProt P30680). Nature of the test: co-IP; HEK293 cells transfected with HA-Sstr2 and Flag-Dvl1; lysis in 50 mM Hepes pH 7.4, 150 mM NaCl with 2 mg/ml dodecyl β-maltoside and 0.2% Triton X-100; HA-Sstr2 precipitated with anti-HA agarose, 2 h at 4 °C; Western blot for Dvl1. For orientation: A western blot detects proteins with antibodies after separation by electrophoresis.

By UniProt entry, the sequences of proteins in these tests, tags left out.
UniProt P30680: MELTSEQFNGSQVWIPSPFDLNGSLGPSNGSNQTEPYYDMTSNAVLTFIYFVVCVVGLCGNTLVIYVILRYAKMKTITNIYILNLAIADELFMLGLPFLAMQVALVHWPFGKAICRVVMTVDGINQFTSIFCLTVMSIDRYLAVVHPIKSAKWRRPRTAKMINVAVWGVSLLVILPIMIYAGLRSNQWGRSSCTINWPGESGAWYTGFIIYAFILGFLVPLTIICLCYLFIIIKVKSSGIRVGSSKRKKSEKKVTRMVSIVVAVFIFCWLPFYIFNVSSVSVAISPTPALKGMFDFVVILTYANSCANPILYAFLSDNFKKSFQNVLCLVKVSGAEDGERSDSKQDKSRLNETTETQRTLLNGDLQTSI
UniProt P30874: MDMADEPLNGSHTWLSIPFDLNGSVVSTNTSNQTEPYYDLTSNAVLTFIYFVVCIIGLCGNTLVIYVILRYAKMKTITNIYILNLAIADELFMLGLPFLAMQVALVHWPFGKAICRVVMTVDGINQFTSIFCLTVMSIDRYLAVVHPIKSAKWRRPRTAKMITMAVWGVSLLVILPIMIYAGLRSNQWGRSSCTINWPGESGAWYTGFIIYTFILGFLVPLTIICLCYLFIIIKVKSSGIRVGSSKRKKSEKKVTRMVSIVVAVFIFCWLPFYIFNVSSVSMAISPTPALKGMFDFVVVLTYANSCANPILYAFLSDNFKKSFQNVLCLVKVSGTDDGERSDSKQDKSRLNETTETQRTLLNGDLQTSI

Test [2] shares this target. As to the kind of experiment: proximity ligation; DuoLink PLA with HA and Flag antibodies in HEK293 cells transfected with HA-Sstr2 and Flag-Dvl1; fixed in 3% PFA; untreated, 100 nM octreotide for the times shown, or 100 nM PRL2915 for 30 min.
Test [3] shares this target. Nature of the test: condition: only cells incubated overnight with the pan-Dvl PDZ domain inhibitor NSC668036; co-IP; as a1, but the transfected HEK293 cells were incubated overnight with the pan-Dvl PDZ domain inhibitor NSC668036 before lysis and immunoprecipitation of HA-Sstr2.
Test [4] addresses endogenous Sstr2 (Somatostatin receptor 2) (human (endogenous in IMR32 and H69)) (UniProt P30874). As to the kind of experiment: proximity ligation; DuoLink PLA with mouse anti-Sstr2 and rabbit anti-Dvl1 on endogenous proteins in IMR32 cells; fixed in cold methanol; untreated, 100 nM octreotide for the times shown, or 100 nM PRL2915 for 30 min.
For test [5] the target is unchanged. As to the kind of experiment: co-IP; endogenous proteins from IMR32 and H69 cells; lysis buffer with 0.5% C12E8; lysates clarified with nonspecific rabbit IgG and Protein A-Sepharose; 1.5 μg rabbit anti-Sstr2 or rabbit IgG, 2 h at 4 °C; washes with NaCl at 175 mM; Western blot for Dvl1.

Results are given in words; binding and its absence hold for the method and conditions named. Binding seen in cells or lysates may run through a third protein. Some binding calls cover weakened binding; strength is not graded here. For some assays here: Sequences can lack the tags named with a protein.

B1: Flag-tagged human Dvl1 (Dishevelled 1) (protein, UniProt O14640 1-695)
chain: MAETKIIYHMDEEETPYLVKLPVAPERVTLADFKNVLSNRPVHAYKFFFKSMDQDFGVVKEEIFDDNAKLPCFNGRVVSWLVLAEGAHSDAGSQGTDSHTDLPPPLERTGGIGDSRPPSFHPNVASSRDGMDNETGTESMVSHRRERARRRNREEAARTNGHPRGDRRRDVGLPPDSASTALSSELESSSFVDSDEDGSTSRLSSSTEQSTSSRLIRKHKRRRRKQRLRQADRASSFSSITDSTMSLNIVTVTLNMERHHFLGISIVGQSNDRGDGGIYIGSIMKGGAVAADGRIEPGDMLLQVNDVNFENMSNDDAVRVLREIVSQTGPISLTVAKCWDPTPRSYFTVPRADPVRPIDPAAWLSHTAALTGALPRYGTSPCSSAVTRTSSSSLTSSVPGAPQLEEAPLTVKSDMSAVVRVMQLPDSGLEIRDRMWLKITIANAVIGADVVDWLYTHVEGFKERREARKYASSLLKHGFLRHTVNKITFSEQCYYVFGDLCSNLATLNLNSGSSGTSDQDTLAPLPHPAAPWPLGQGYPYQYPGPPPCFPPAYQDPGFSYGSGSTGSQQSEGSKSSGSTRSSRRAPGREKERRAAGAGGSGSESDHTAPSGVGSSWRERPAGQLSRGSSPRSQASATAPGLPPPHPTTKAYTVVGGPPGGPPVRELAAVPPELTGSRQSFQKAMGNPCEFFVDIM
On to B1, for which the binding entry in test [1] is listed as “binds”; in test [2], “binds”; in test [3], “no binding”.

B2: endogenous Dvl1 (Dishevelled 1) (protein, UniProt O14640 1-695)
chain: B1 chain
Turning to B2, the binding entry in test [4] and in test [5] was “binds” each time.

The values above are taken from paper PMC10164914.
